Laboratory results: PubChem BioAssay AID624417 (National Center for Advancing Translational Sciences (NCATS), 2012)
Hit rate of the full screen: of about 410,000 compounds, about 6,400 (1.6%) were called active. This list was built around the results that the source calls inconclusive (neither active nor inactive); the mix of calls is not that of the screen. Calls follow the shape of the dose curve; as a rule, active = well fitted inhibition curve with a large enough effect; inconclusive = small, poorly fitted or top-dose-only effect; inactive = no such curve, though single readings can be large or run the other way. Potencies of inconclusive entries are left out as doubtful fits.

These compounds were tested against Glucagon-like peptide 1 receptor (Homo sapiens) (UniProt P43220) (assay: qHTS of GLP-1 Receptor Inverse Agonists (Inhibition Mode)). Settings: HEK293 GLP-1R CRE-luciferase, luminescence, 24 h, GLP-1R form is constitutively active; activity change, negative = inhibition: at 38.3 µM (top of the series) unless noted.
In short: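 Cells are plated, allowed 12 hours at 37 deg C, then treated with compounds for 24 hr before luciferase detection reagent is added and luminescence is read after 12 min at room temperature. The HEK293 line carries constitutively active GLP-1R with a cAMP-responsive reporter.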
% is scaled to controls: 0 for no effect and ±100 for the full control effect; potency is read from the fitted curve at half-maximal effect; tags tell the direction and shape of the fitted curve.
Also: nearly all actives have a fitted effect of over 55% in size.

Chain of UniProt P43220 (P43220 whole entry, looked up): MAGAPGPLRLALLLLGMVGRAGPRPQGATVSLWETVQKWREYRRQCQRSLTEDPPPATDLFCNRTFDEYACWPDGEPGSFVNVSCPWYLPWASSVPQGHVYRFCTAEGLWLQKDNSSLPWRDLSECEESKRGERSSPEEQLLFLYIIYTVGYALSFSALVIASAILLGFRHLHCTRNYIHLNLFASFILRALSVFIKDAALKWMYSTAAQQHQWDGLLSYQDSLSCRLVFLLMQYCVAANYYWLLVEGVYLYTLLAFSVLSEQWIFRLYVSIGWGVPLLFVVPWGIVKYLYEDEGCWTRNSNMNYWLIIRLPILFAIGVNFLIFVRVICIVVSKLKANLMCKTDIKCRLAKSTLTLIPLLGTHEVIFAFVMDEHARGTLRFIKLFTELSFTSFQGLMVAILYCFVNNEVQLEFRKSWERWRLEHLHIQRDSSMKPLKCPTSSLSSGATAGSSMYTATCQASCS

Structure (SMILES)	Potency	activity change, negative = inhibition
Cc1cccc(-n2nnnc2S(C)(=O)=O)c1	inconclusive [inhibitor, single point]	–
O=C(Cc1ccccc1)Nc1c(C(=O)Nc2ccccc2F)oc2ccccc12	inactive	–
Cc1ccc(NC(=O)CN(C)S(=O)(=O)c2cccc3nsnc23)cc1C	inconclusive [inhibitor, single point]	–
Cc1ccc(NC(=O)CO/N=C(\N)c2ccccc2)cc1C	inconclusive [inhibitor, single point]	–
COC(=O)c1ccccc1OCC(=O)NC1CCCCC1	inconclusive [inhibitor, single point]	–
Cc1ccc(NC(=O)CSc2nc(=O)n(CCCN(C)C)c3c2CCC3)c(C)c1	inconclusive [inhibitor, single point]	–
O=C(Nc1ccccc1N1CCCC1)C1CCN(C(=O)c2ccc(Cl)cc2)CC1	inconclusive [inhibitor, single point]	–
Cc1cc(O)c(C(C)C)cc1NC(=O)Nc1ccc([N+](=O)[O-])cc1	inconclusive [inhibitor, single point]	–
COc1cccc(OCC(=O)N(Cc2nc(-c3ccc(Cl)cc3)no2)C(C)C)c1	inconclusive [inhibitor, single point]	–
COc1ccc(Br)cc1CNC(=O)C1CCCCN1S(=O)(=O)c1ccc(F)cc1 (centres undefined)	inconclusive [inhibitor, partial curve, poor fit]	–
Cc1ccc(NC(=O)[C@H](Cc2c[nH]c3ccccc23)NC(=O)[C@@H]2Cc3ccccc3CN2)c(C)c1	inconclusive [inhibitor, full curve]	–
Cc1ccc(OCc2nc3ccccc3n2Cc2ccccc2Cl)cc1	active: 12.6 µM	–
CCc1ccc(NC(=S)N(Cc2ccccc2)Cc2ccccn2)cc1	inconclusive [inhibitor, partial curve, poor fit]	–
Cc1ccc(S(=O)(=O)N/N=C2/CC(c3ccccc3)Oc3ccccc32)cc1[N+](=O)[O-] (centres undefined)	inconclusive [inhibitor, single point]	–
Cc1cccc(NC(=S)N=Nc2c(O)n(C)c3ccc(S(=O)(=O)N4CCOCC4)cc23)c1	inconclusive [inhibitor, full curve, poor fit]	–
O=C(NCc1ccc(Cl)cc1)C1CCCN(c2ncnc3c2nc2n3CCCCC2)C1 (centres undefined)	inconclusive [inhibitor, partial curve, poor fit]	–
Cc1ccc(S(=O)(=O)NC(C)CCc2ccccc2)cc1 (centres undefined)	inconclusive [inhibitor, single point]	–
Cc1ccc(S(=O)(=O)N(CC(=O)NCC2CCCO2)Cc2cccc(C)c2)cc1 (centres undefined)	inactive	–
CCOC(=O)C1(CCOc2ccccc2)CCN(CCCn2cccn2)CC1	inconclusive [inhibitor, partial curve, poor fit]	–
Cc1ccc(S(=O)(=O)N2CCCC(C(=O)N3CCN(c4ccccc4)CC3)C2)cc1 (centres undefined)	inconclusive [inhibitor, partial curve, poor fit]	–

Structure (SMILES)	Potency	activity change, negative = inhibition
COc1ccc(CN(CC(=O)NC2CCCC2)C(=O)c2ccc(-c3ccccc3)[nH]2)cc1	inconclusive [inhibitor, partial curve, poor fit]	–
COc1cccc(OC)c1OCCCNC1CCCC1	inactive	–
Cc1ccc(SCCNC(=O)C(CO)(CO)CO)cc1	inconclusive [inhibitor, single point]	–
COc1ccccc1CC(=O)Nc1ccc(-c2nnc(-c3ccco3)o2)cc1	inconclusive [inhibitor, single point]	–
Cc1ccc(S(=O)(=O)N2[C@H](CC(=O)c3cccc4ccccc34)OC[C@@H]2C(C)C)cc1	inconclusive [inhibitor, single point]	–
CC(OC(=O)/C=C/c1ccco1)C(=O)NC1CCCCC1 (centres undefined)	inactive	–
CCCCCCCCN1C(=O)[C@H](CC(=O)NCC2CCCCC2)C[C@@]2(C(=O)OCC)CCC=C12	inconclusive [inhibitor, single point]	–
O=C(CSc1n[nH]c(=O)n1-c1ccc2c(c1)OCCO2)Nc1ccccc1	inconclusive [inhibitor, partial curve, poor fit]	–
O=[N+]([O-])c1ccccc1/C=C/CN1CCCCC1	inactive	–
COCCOC(=O)C1=C(C)N(c2ccccc2)C(=S)NC1c1ccccc1C(F)(F)F (centres undefined)	inconclusive [inhibitor, partial curve, poor fit]	–
COC(=O)c1cc2occc2n1Cc1nc(-c2ccc(C)cc2)oc1C	inconclusive [inhibitor, full curve]	–
Cc1ccc(C(=O)N2CC(=O)Nc3ccc(F)cc3C2c2ccccc2)cc1 (centres undefined)	–	inconclusive: -50.4% [inhibitor]
Cc1nc2c(C(=O)NC(C)c3ccccc3)cnn2c(C)c1Cc1ccccc1 (centres undefined)	inconclusive [inhibitor, single point]	–
CCOC(=O)/C(C#N)=C/c1cn(CCOc2ccc(OC)cc2)c2ccccc12	inconclusive [inhibitor, partial curve]	–
COc1ccccc1C1CCN(Cc2c(C)[nH]c3ccccc23)CC1	inconclusive [inhibitor, partial curve, poor fit]	–
COc1ccccc1CNC(=O)C(C)n1cccc1C(=O)c1ccccc1 (centres undefined)	inconclusive [inhibitor, partial curve, poor fit]	–
Cc1oc(-c2nc3ccccc3n2C)cc1C(=O)c1ccccc1	inconclusive [inhibitor, partial curve, poor fit]	–
O=C1[C@H]2[C@@H](c3ccccc3)N[C@]3(CCCN(Cc4ccc(Cl)cc4)C3=O)[C@H]2C(=O)N1Cc1ccccc1	inconclusive [inhibitor, partial curve, poor fit]	–
CC(C)(C)c1ccc(C2C3=C(CCCC3=O)NC3=C2C(=O)c2ccccc23)cc1 (centres undefined)	inconclusive [inhibitor, single point]	–
